Assay results as given in PubChem BioAssay (Tox21).
Where “and” joins values, the source holds several entries; their conditions need not be identical. Equal entries are not always repeated. Inconclusive means that the source gave no clear call. Such entries were picked first, then a sample of the others. For some of these results: Potencies beside an inconclusive call are fits to weak or partial responses and may not hold up. Calls of active or inactive are those of the source. Unless noted, the call rests on the fitted dose curve; in most records, active means well fitted curve in the direction sought with a large enough effect in the repeat runs; inconclusive means weak or mixed curves; inactive means no such curve, though single readings can be large; an effect the other way counts as inactive or inconclusive.

Assays:
[1] = A CellTox Green Cytotoxicity Assay to monitor cytotoxicity in HepG2 cells - 32 hour (AID 1224883); further: nearly all actives have a fitted effect of over 50% in size; further: potency means the concentration at half of the fitted maximal effect
How it was run: (§1)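 Real-time, homogeneous cytotoxicity readout: dead-cell DNA staining by CellTox Green in HepG2 monolayers, fluorescence measured at timed intervals up to 40 h of continuous compound exposure.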

[2] = qHTS RealTime-Glo MT Cell Viability Assay in HEK293 cells - 24 hour (AID 1224886); further: nearly all actives have a fitted effect of over 50% in size; further: potency means the concentration at half of the fitted maximal effect
How it was run: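 Nonlytic real-time viability readout: viable cells convert prosubstrate to NanoLuc substrate, giving luminescence proportional to live cell number. HEK293, 600 cells/well, compound added after 5 h, continuous culture at 37 C.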

[3] = A CellTox Green Cytotoxicity Assay to monitor cytotoxicity in HEK293 cells - 16 hour (AID 1224888); further: nearly all actives have a fitted effect of over 35% in size; further: potency means the concentration at half of the fitted maximal effect
How it was run: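 Cytotoxicity was tracked continuously in HEK293 cells by a DNA-binding dye excluded from viable cells. Compounds were transferred in DMSO 5 h after seeding; fluorescence was recorded at intervals up to 40 h.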

[4] = A CellTox Green Cytotoxicity Assay to monitor cytotoxicity in HepG2 cells - 8 hour (AID 1224890); further: potency means the concentration at half of the fitted maximal effect; nearly all actives have a fitted effect of over 45% in size
How it was run: as §1

[5] = qHTS assay to identify small molecule agonists of the sonic hedgehog signaling (Shh) pathway (AID 1259368; calls by dose curve; further: potency means the concentration at half of the fitted maximal effect; nearly all actives have a fitted effect of over 15% in size)
How it was run: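 Steps: seed 3T3 Gli1-Luc cells, incubate 4 hr at 37 C, pin-transfer compounds in DMSO alongside a positive control, incubate 24 hr, add luciferase detection reagent, wait 30 min at room temperature, read luminescence.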

[6] = qHTS RealTime-Glo MT Cell Viability Assay in HEK293 cells - 8 hour (AID 1224887); further: potency means the concentration at half of the fitted maximal effect; nearly all actives have a fitted effect of over 50% in size
How it was run: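 Nonlytic bioluminescent viability monitoring. HEK293 at 600 cells/well with reagent; 5 h settle; compound transfer by pintool; plates held at 37 C and read at set time points.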

[7] = qHTS assay to identify small molecule agonists of the sonic hedgehog signaling (Shh) pathway - cell viability counter screen (AID 1259366); further: nearly all actives have a fitted effect of over 50% in size; further: potency means the concentration at half of the fitted maximal effect
How it was run: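 CellTiter-Fluor fluorescence read-out, 1 hr at 37C, added after 23hr compound exposure. Cells: 3T3 Gli1-Luc, an NIH/3T3 clone with stably integrated Gli1-Luc reporter, plated 4hr before compound.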

[8] = qHTS assay to identify small molecule antagonists of the sonic hedgehog signaling (Shh) pathway - cell viability counter screen (AID 1259367); further: nearly all actives have a fitted effect of over 55% in size; further: potency means the concentration at half of the fitted maximal effect
How it was run: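 After a 4 hr settling period, 3T3 Gli1-Luc cells were treated with DMSO-dissolved chemicals and conditioned medium, kept 24 hr at 37C in 5% CO2, and assayed for viability by CellTiter-Fluor fluorescence following 1 hr reagent incubation.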

[9] = qHTS assay to identify small molecule antagonists of the sonic hedgehog signaling (Shh) pathway (AID 1259369; calls by dose curve; further: potency means the concentration at half of the fitted maximal effect; nearly all actives have a fitted effect of over 45% in size)
How it was run: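 Inhibition of Shh signalling is measured as reduced Gli1-response-element firefly luciferase output in an NIH/3T3-derived stable reporter clone stimulated with conditioned medium for 24hr.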

[10] = qHTS assay to identify small molecule antagonists of the androgen receptor (AR) signaling pathway using the MDA cell line in the presence of 0.5 nM R1881 - cell viability counter screen (AID 1259242); further: nearly all actives have a fitted effect of over 45% in size; further: potency means the concentration at half of the fitted maximal effect
How it was run: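 Cytotoxicity toward MDA-kb2 cells is measured by CellTiter-Fluor live-cell protease fluorescence after 16 hr compound exposure at 37C in the presence of 0.5 nM R1881 stimulator.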

[11] = target: Androgen receptor (Homo sapiens) (UniProt P10275); test: qHTS assay to identify small molecule antagonists of the androgen receptor (AR) signaling pathway using the MDA cell line in the presence of 0.5 nM R1881 (AID 1259243)
How it was run: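 Steps: seed MDA-kb2 cells, incubate 5 hr at 37C; pin-transfer compounds in DMSO; add R1881 to 0.5 nM final; incubate 16 hr; add ONE-Glo, wait 30 min at room temperature; read luminescence.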

[12] = target: Estrogen receptor beta (Homo sapiens) (UniProt Q92731); test: qHTS assay to identify small molecule agonists of the estrogen receptor beta (ER-beta) signaling pathway (AID 1259377; active means well fitted activation curve with a large enough effect in the signal ratio in the repeat runs, not every such curve was filed as active; inconclusive means weak or mixed curves, or effect the other way; the % refers to the signal ratio; further: potency means the concentration at half of the fitted maximal effect); conditions: ER-beta-UAS-bla HEK293T, beta-lactamase FRET ratio, 16 h; series mostly up to 92.4 µM
How it was run: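 Beta-lactamase reporter readout: fluorescence of LiveBLAzer B/G FRET substrate after 2 h at room temperature, following 16 h compound treatment of ER-beta-UAS-bla HEK293T cells at 37C in 2% charcoal-stripped FBS medium.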

[13] = qHTS RealTime-Glo MT Cell Viability Assay in HepG2 cells - 0 hour (AID 1224889); further: nearly all actives have a fitted effect of over 50% in size; further: potency means the concentration at half of the fitted maximal effect
How it was run: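 Luminescence read-out: viable HepG2 cells reduce a prosubstrate to a NanoLuc substrate, giving a signal proportional to live cell number. Reads taken at 0, 8, 16, 24, 32 and 40 h of compound exposure at 37 C.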

[14] = target: Estrogen receptor (Homo sapiens) (UniProt P03372); test: qHTS assay to identify small molecule antagonists of the estrogen receptor alpha (ER-alpha) signaling pathway using the BG1 cell line in the presence of 0.1 nM 17-beta-estradiol (AID 1259244); further: nearly all actives have a fitted effect of over 50% in size
How it was run: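 After 5 days in hormone-depleted medium (charcoal-stripped serum, no phenol red), VM7Luc4E2 cells were seeded, incubated 24 h, then co-treated with compound and 0.1 nM (final) estradiol for 22 h before luminescence detection.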
Tags describe the fitted curve by direction and shape or compound fluorescence and quenching.

Chain of UniProt Q92731 (Q92731 whole entry, looked up): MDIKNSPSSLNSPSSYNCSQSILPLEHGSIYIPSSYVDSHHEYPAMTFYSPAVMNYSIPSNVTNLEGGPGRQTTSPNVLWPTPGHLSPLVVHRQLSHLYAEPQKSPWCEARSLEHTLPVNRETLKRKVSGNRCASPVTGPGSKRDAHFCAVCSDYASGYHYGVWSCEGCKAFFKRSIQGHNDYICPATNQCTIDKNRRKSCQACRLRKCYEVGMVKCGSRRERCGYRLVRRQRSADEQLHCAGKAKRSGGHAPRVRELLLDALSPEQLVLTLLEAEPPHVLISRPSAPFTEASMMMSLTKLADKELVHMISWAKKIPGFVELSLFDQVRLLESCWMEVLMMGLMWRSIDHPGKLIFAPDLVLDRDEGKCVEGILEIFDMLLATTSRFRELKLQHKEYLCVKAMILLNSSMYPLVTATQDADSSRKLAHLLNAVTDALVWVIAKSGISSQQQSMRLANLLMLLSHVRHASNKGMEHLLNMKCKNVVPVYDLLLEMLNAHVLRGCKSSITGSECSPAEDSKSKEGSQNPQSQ
Chain of UniProt P03372 (P03372 whole entry, looked up): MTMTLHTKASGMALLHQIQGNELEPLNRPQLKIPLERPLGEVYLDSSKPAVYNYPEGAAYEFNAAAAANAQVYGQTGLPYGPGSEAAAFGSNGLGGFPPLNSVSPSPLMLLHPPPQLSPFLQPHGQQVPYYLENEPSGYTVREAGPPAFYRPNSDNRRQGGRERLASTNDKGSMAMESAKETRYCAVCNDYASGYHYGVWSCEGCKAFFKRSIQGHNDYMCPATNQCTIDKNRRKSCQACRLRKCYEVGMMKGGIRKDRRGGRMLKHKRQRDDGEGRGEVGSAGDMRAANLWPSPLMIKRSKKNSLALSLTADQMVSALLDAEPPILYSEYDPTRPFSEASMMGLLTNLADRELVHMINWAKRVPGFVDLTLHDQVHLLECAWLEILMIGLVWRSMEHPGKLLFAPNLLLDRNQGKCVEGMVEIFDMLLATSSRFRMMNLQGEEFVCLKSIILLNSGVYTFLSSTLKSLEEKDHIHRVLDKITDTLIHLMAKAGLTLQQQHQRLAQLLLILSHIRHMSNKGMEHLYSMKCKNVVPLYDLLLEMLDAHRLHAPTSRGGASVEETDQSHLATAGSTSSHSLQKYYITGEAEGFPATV
Chain of UniProt P10275 (P10275 whole entry, looked up): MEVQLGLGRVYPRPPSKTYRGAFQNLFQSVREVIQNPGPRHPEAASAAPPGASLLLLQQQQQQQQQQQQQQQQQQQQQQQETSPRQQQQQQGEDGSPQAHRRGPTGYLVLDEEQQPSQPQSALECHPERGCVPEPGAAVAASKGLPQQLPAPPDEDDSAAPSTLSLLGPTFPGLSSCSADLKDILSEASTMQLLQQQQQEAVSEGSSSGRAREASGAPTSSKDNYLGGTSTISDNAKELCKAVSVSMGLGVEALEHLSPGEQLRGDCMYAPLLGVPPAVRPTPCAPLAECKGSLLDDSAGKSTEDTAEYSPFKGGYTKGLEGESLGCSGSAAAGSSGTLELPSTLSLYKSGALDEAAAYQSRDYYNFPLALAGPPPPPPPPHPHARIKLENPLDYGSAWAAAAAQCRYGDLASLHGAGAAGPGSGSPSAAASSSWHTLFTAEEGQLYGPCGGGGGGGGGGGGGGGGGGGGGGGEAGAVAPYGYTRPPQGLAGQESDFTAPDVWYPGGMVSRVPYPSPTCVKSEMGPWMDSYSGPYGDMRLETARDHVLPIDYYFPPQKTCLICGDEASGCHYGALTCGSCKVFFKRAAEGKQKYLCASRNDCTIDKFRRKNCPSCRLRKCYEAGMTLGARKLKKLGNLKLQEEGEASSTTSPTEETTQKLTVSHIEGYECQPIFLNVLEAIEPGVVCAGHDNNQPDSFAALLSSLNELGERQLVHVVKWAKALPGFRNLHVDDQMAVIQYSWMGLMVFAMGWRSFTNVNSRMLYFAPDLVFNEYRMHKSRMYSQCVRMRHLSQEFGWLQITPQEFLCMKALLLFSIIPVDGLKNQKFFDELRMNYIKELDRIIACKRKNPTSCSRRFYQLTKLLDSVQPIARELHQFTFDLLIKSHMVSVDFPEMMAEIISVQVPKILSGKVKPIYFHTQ

For `O=c1[nH]c(=O)n([C@H]2C[C@H](O)[C@@H](CO)O2)cc1F`, the Potency [1] was active: 6.01 µM, the Potency [2] was inconclusive: 2.39 µM [cytotoxic, partial curve, poor fit] and the Potency [3] was “inactive”. The Potency [4] was active: 6.01 µM.

For `OC12N=C(c3ccccc3)SC1Cc1cc(Cl)ccc12` (stereo unspecified), the Potency [1] was inconclusive: 54.9 µM [activator, single point], the Potency [2] was inconclusive: 30.9 µM [rising, partial curve] and the Potency [5] was active: 2.73 µM.

In the case of `CN(C)C(=O)Nc1ccc(Oc2ccc(Cl)cc2)cc1`, the Potency [1] is reported as inconclusive: 49 µM [activator, single point], the Potency [2] is reported as inconclusive: 38.9 µM [cytotoxic, partial curve] and the Potency [6] is reported as inconclusive: 34.7 µM [cytotoxic, partial curve, poor fit].

With `c1cc[c]([Bi]([c]2ccccc2)[c]2ccccc2)cc1` the Potency [1] was inconclusive: 61.6 µM [activator, single point], the Potency [2] was inconclusive: 21.9 µM [cytotoxic, full curve, poor fit] and the Potency [7] was inconclusive: 77 µM [cytotoxic, partial curve, poor fit]. For the same compound, the Potency [8] was inconclusive: 54.5 µM [cytotoxic, partial curve] and the Potency [9] was active: 13.7 µM.

With `CC1(C)C(C=C(Cl)Cl)C1C(=O)OCc1cccc(Oc2ccccc2)c1` (stereo unspecified) the Potency [1] was “inactive”, the Potency [2] was inconclusive: 48.6 µM [cytotoxic, single point] and the Potency [6] was inconclusive: 54.6 µM [cytotoxic, single point].

For `O=C(Nc1ccccc1)c1ccccc1O`, the Potency [1] was inconclusive: 54.9 µM [activator, single point], the Potency [2] was inconclusive: 19.5 µM [cytotoxic, partial curve] and the Potency [10] was inconclusive: 68.6 µM [cytotoxic, partial curve, poor fit]. The Potency [11] was inconclusive: 68.6 µM [inhibitor, single point], the Potency [7] was inconclusive: 27.3 µM [cytotoxic, partial curve] and the Potency [12] was “inactive”.

With `O=C(Oc1ccccc1)c1ccc2ccccc2c1O` the Potency [1] was inconclusive: 43.6 µM [activator, partial curve, poor fit], the Potency [2] was inconclusive: 43.6 µM [cytotoxic, partial curve, poor fit] and the Potency [6] was inconclusive: 43.6 µM [cytotoxic, partial curve]. The Potency [13] was “inactive” and the Potency [12] was inconclusive: 61.1 µM [rising, partial curve, poor fit].

With `CC1=C(/C=C/C(C)=C\C=C\C(C)=C\C(=O)O)C(C)(C)CCC1` the Potency [1] was inconclusive: 6.16 µM [activator, full curve, poor fit], the Potency [2] was “inactive” and the Potency [7] was inconclusive: 68.6 µM [cytotoxic, partial curve, poor fit]. For the same compound, the Potency [5] was active: 8.63 µM.

With `O=C(O)Cc1ccc(Cl)cc1Cl` the Potency [1] was inconclusive: 24.5 µM [activator, single point], the Potency [13] was inconclusive: 24.5 µM [rising, single point] and the Potency [4] was inconclusive: 21.9 µM [activator, single point]. For the same compound, the Potency [10] was “inactive”, the Potency [14] was “inactive” and the Potency [7] was “inactive”. For the same compound, the Potency [8] was “inactive” and the Potency [9] was inconclusive: 77 µM [inhibitor, single point].

In the case of `CCCCCCCCCCCCCCCCCCOCC(O)CO` (stereo unspecified), the Potency [1] is reported as inconclusive: 26.8 µM [activator, single point], the Potency [4] is reported as inconclusive: 26.8 µM [activator, single point] and the Potency [10] is reported as “inactive”. The Potency [14] was “inactive”.

With `CC(=O)CCC1=C(C)CCCC1(C)C` the Potency [1] was inconclusive: 21.9 µM [activator, single point], the Potency [3] was “inactive” and the Potency [9] was inconclusive: 19.3 µM [inhibitor, full curve].

With `CCCCCCCCc1ccc(S(=O)(=O)O)cc1` the Potency [1] was inconclusive: 21.7 µM [activator, full curve, poor fit], the Potency [3] was inconclusive: 61.1 µM [activator, partial curve, poor fit] and the Potency [9] was inconclusive: 21.5 µM [inhibitor, partial curve].

With `CC/C=C\CCOC(=O)c1ccccc1O` the Potency [1] was inconclusive: 21.9 µM [activator, single point] and the Potency [4] was inconclusive: 21.9 µM [activator, single point].

In the case of `CCCCC/C=C\C/C=C\CCCCCCCC(=O)OC`, the Potency [1] is reported as inconclusive: 61.7 µM [activator, single point], the Potency [6] is reported as inconclusive: 19.5 µM [cytotoxic, partial curve, poor fit] and the Potency [13] is reported as “inactive”. The Potency [12] was inconclusive: 54.5 µM [rising, single point].

For `O=C(Oc1ccccc1)c1ccc(O)cc1`, the Potency [1] was inconclusive: 54.9 µM [activator, single point], the Potency [6] was inconclusive: 49.3 µM [cytotoxic, partial curve, poor fit] and the Potency [4] was inconclusive: 54.9 µM [activator, single point]. The Potency [12] was inconclusive: 21.8 µM [activator] and inconclusive: 17.2 µM [activator, partial curve].
